Values joined by “and” are separate entries in the source; they are usually repeats but may differ in a detail not shown here. Equal entries are not always repeated. Structures can show the parent of a compound that is named as a salt. Among all 5,800 compounds or so, about 620 (11%) showed activity.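 Rule for the calls: active = score above a cut-off or among the top three wells of a plate; in these data no inactive exceeds 0.85.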 This is a selection; strong and weak results do not stand in their true shares.
Tested on: primary human hepatic stellate cells (donor 1)
Assay: scaled lipid accumulation score (0 = DMSO-like, 1 = nortriptyline-like); higher = stronger HSC inactivation (lipid re-accumulation), active = hit call of the paper
Settings: 48 h
[1] = library stock concentration: 10 mM
[2] = library stock concentration: 3.33 mM

Q: For COc1cc2c3cc1Oc1cc(ccc1O)C[C@@H]1c4c(cc(OC)c(O)c4Oc4cccc(c4)C[C@@H]3N(C)CC2)CC[N+]1(C)C [Tubocurarine chloride pentahydrate (+)], which “scaled lipid accumulation score” value is on record?
A: The value was inactive: 0.039.

Q: How did the “scaled lipid accumulation score” value [1] turn out when CNCCc1ccc(O)c(O)c1 [N-Methyldopamine hydrochloride] was run?
A: Its value is inactive: 0.327.

Q: For Clc1cnc(Oc2ccc(Oc3ncc(Cl)cc3Cl)cc2)c(Cl)c1, which “scaled lipid accumulation score” value [1] is on record?
A: Its value is inactive: ≤ 0.

Q: O=C1C=CC(=O)c2c(O)cccc21 [Juglone] was tested. Which “scaled lipid accumulation score” value [1] did it give?
A: Its value is inactive: 0.428.

Q: With COC[C@H]1OC(=O)c2coc3c2[C@@]1(C)C1=C(C3=O)[C@@H]2CCC(=O)[C@@]2(C)C[C@H]1OC(C)=O [Wortmannin] as the compound, how does the “scaled lipid accumulation score” value [2] read?
A: The value was inactive: ≤ 0.

Q: What about the “scaled lipid accumulation score” value [1] of the same compound?
A: The value was inactive: ≤ 0.

Q: Which results are given for C=C[C@H]1CN2CC[C@H]1C[C@H]2[C@H](O)c1ccnc2ccccc12 [Cinchonidine]?
A: scaled lipid accumulation score [2]: inactive: ≤ 0; scaled lipid accumulation score (library stock concentration: 6.8 mM): inactive: ≤ 0; scaled lipid accumulation score [1]: inactive: ≤ 0

Q: With C=C[C@H]1CN2CC[C@H]1C[C@H]2[C@H](O)c1ccnc2ccccc12 [(-)-Cinchonidine] as the compound, how does the “scaled lipid accumulation score” value read?
A: The value was inactive: ≤ 0.

Q: Cc1cccc(C(C)c2c[nH]cn2)c1C (stereo not given) [Medetomidine HCl] was tested. Which “scaled lipid accumulation score” value [2] did it give?
A: Its value is inactive: ≤ 0.

Q: What about the “scaled lipid accumulation score” value [1] of the same compound?
A: Its value is inactive: 0.387.

Q: For Cc1cccc(C(C)c2c[nH]cn2)c1C (stereo not given) [Medetomidine hydrochloride], which “scaled lipid accumulation score” value [1] is on record?
A: Its value is inactive: ≤ -0.001.

Q: For CC1=NCCc2c1[nH]c1cc(O)ccc21 [Harmalol hydrochloride], which “scaled lipid accumulation score” value [1] is on record?
A: The value was inactive: ≤ 0.

Q: For COc1ccc2c(c1)[C@]13CCCC[C@@H]1[C@H](C2)N(C)CC3 [d-3-Methoxy-N-methylmorphinan hydrobromide], which “scaled lipid accumulation score” value [1] is on record?
A: The value was inactive: 0.519.

Q: With COc1ccc2c(c1)[C@]13CCCC[C@@H]1[C@H](C2)N(C)CC3 [Dextromethorphan hydrobromide monohydrate] as the compound, how does the “scaled lipid accumulation score” value read?
A: The value was inactive: 0.376.

Q: And the “scaled lipid accumulation score” value [1]?
A: Its value is inactive: 0.707.

Q: Which results are given for COc1ccc2c(c1)[C@]13CCCC[C@@H]1[C@H](C2)N(C)CC3 [Dextromethorphan hydrobromide]?
A: scaled lipid accumulation score (library stock concentration: 5.7 mM): inactive: 0.44; scaled lipid accumulation score [1]: inactive: 0.106

Q: How did the “scaled lipid accumulation score” value (library stock concentration: 600 uM) turn out when COc1c(C[C@@H](C)OC(=O)Oc2ccc(O)cc2)c2c3c(C[C@@H](C)OC(=O)c4ccccc4)c(OC)c(=O)c4c(O)cc(OC)c(c5c(OC)cc(O)c(c1=O)c52)c43 [Calphostin C] was run?
A: The value was inactive: 0.094.

Q: Which “scaled lipid accumulation score” value (library stock concentration: 9.4 mM) does the source give for COc1ccc2c(c1)[nH]c1c(C)nccc12 [Harmine] here?
A: Its value is active: 0.851.

Q: With O=C([O-])Cc1ccccc1.[Na+] [Sodium phenylacetate] as the compound, how does the “scaled lipid accumulation score” value (library stock concentration: 12.6 mM) read?
A: The value was inactive: ≤ -0.006 and inactive: ≤ 0.

Q: CN1C[C@H](CNC(=O)OCc2ccccc2)C[C@@H]2c3cccc4c3c(cn4C)C[C@H]21 [Metergoline] was tested. Which “scaled lipid accumulation score” value [1] did it give?
A: Its value is active: 0.893.

Q: For N=C(NCc1ccc(Cl)cc1)SCCCc1c[nH]cn1 [Clobenpropit], which “scaled lipid accumulation score” value [1] is on record?
A: Its value is active: 0.903.

Q: How did the “scaled lipid accumulation score” value [2] turn out when CN1[C@@H]2CC(O)C[C@H]1[C@@H]1O[C@@H]12 (stereo not given in full) [Scopine HCl] was run?
A: Its value is inactive: 0.01.

Q: And the “scaled lipid accumulation score” value [1]?
A: The value was inactive: ≤ 0.

Q: How did the “scaled lipid accumulation score” value [1] turn out when S=C(NC1CCCCC1)N1CCC(c2cnc[nH]2)CC1 [Thioperamide] was run?
A: The value was inactive: 0.01.

Q: Which “scaled lipid accumulation score” value does the source give for S=C(NC1CCCCC1)N1CCC(c2cnc[nH]2)CC1 [Thioperamide maleate] here?
A: Its value is inactive: ≤ 0.

Q: What about the “scaled lipid accumulation score” value [1] of the same compound?
A: Its value is inactive: ≤ 0.

Q: How did the “scaled lipid accumulation score” value (library stock concentration: 26.7 mM) turn out when C#CCN(C)C(C)Cc1ccccc1 (stereo not given) [Deprenyl] was run?
A: The value was inactive: 0.042.

Q: How did the “scaled lipid accumulation score” value [1] turn out when CC(=O)N(C)c1cccc(-c2ccnc3c(C(=O)c4cccs4)cnn23)c1 [Indiplon] was run?
A: Its value is inactive: ≤ 0.

Q: Which “scaled lipid accumulation score” value does the source give for CN1[C@@H]2CCC[C@H]1CC(=O)C2 [Pseudopelletierine hydrochloride] here?
A: Its value is inactive: ≤ 0.

Q: Which “scaled lipid accumulation score” value [2] does the source give for O=S(=O)(CC1CS1)c1ccc(Oc2ccccc2)cc1 (stereo not given) here?
A: Its value is inactive: ≤ -0.009.

Q: What about the “scaled lipid accumulation score” value [1] of the same compound?
A: The value was inactive: ≤ 0.

Q: How did the “scaled lipid accumulation score” value [1] turn out when C[C@H](Cc1ccc(OCC(=O)O)cc1)NC[C@H](O)c1cccc(Cl)c1 was run?
A: The value was inactive: 0.03.

Q: Which “scaled lipid accumulation score” value [1] does the source give for N[C@@H](Cn1oc(=O)[nH]c1=O)C(=O)O [L-Quisqualic acid] here?
A: Its value is inactive: ≤ 0.

Q: For NC(N)=NOCC[C@H](N)C(=O)O [Canavanine], which “scaled lipid accumulation score” value [1] is on record?
A: Its value is inactive: ≤ 0.

Q: With NC(N)=NOCC[C@H](N)C(=O)O [L-Canavanine sulfate] as the compound, how does the “scaled lipid accumulation score” value [1] read?
A: Its value is inactive: 0.106.

Q: With NC(N)=NOCC[C@H](N)C(=O)O [Canavanine sulfate monohydrate (L,+)] as the compound, how does the “scaled lipid accumulation score” value read?
A: The value was inactive: ≤ 0.

Q: For NC(N)=NOCC[C@H](N)C(=O)O [L-Canavanine], which “scaled lipid accumulation score” value [1] is on record?
A: Its value is inactive: 0.174.

Q: With CC(C)CC(N(C)C)C1(c2ccc(Cl)cc2)CCC1 (stereo not given) as the compound, how does the “scaled lipid accumulation score” value [1] read?
A: The value was inactive: ≤ 0.

Q: Which “scaled lipid accumulation score” value (library stock concentration: 7.1 mM) does the source give for CC(C)CC(N(C)C)C1(c2ccc(Cl)cc2)CCC1 (stereo not given) [Sibutramine HCl] here?
A: The value was inactive: 0.252.

Q: What does the source list for CC(C)CC(N(C)C)C1(c2ccc(Cl)cc2)CCC1 (stereo not given) [Sibutramine hydrochloride]?
A: scaled lipid accumulation score (library stock concentration: 6.3 mM): inactive: ≤ 0; scaled lipid accumulation score [1]: inactive: 0.131

Q: Which “scaled lipid accumulation score” value [1] does the source give for CC(C)CC(N(C)C)C1(c2ccc(Cl)cc2)CCC1 (stereo not given) [Sibutramine] here?
A: Its value is inactive: ≤ 0.

From the supplement of paper PMC9135407
